In ChEMBL document CHEMBL4513135, “CO-ADD screening of IQOG CSIS (Spain) compounds”:
The list shows a part of the results. Entries with a potency or affinity are not part of this list.

test system: Acinetobacter baumannii; details: Concentration 32 ug.mL-1; ASSAY_TEST Inhibition of Bacterial Growth; detection method Absorption (OD600); MEDIA CAMHB; plate type 384well; NBS; CORNING #3640; time 18 hr

SMILES	Inhibition
N#CC1(Br)C(=NBr)Oc2c(ccc3ccccc23)C1c1ccccc1[N+](=O)[O-] (stereo not given)	-3.43%
N#CC1=C(N)Oc2ccc3ccccc3c2C1c1cccc([N+](=O)[O-])c1 (stereo not given)	2.59%
C#CCN(C)c1nc(OC)c(C#N)cc1C#N	8.02%
CCC(CC)NNC(=O)c1c[nH]c2ccccc12.Cl	4.08%
CNC(=O)c1cc2cc(OCc3ccccc3)ccc2n1C	11.27%
COC(=O)C(NC(=O)c1ccccc1)=C(C)c1ccccc1	-5.55%
COc1cc(Br)c(C=O)cc1OC	-1.23%
COc1ccccc1C1C(C#N)=C(N)Oc2[nH]nc(C)c21 (stereo not given)	3.04%
N#Cc1c(N)nc(NCc2ccccc2)c(C#N)c1-c1ccccc1	12.81%
COc1cccc(C2C(C#N)=C(N)Oc3c2ccc2ccccc32)c1 (stereo not given)	0.48%
CCC(Cc1ccccc1)NNC(=O)c1cc2ccccc2[nH]1 (stereo not given)	-6.2%
Cl.ClCCCC1CCNCC1	2.53%
Cc1ccc(C=C2N=C(c3ccccc3)OC2=O)cc1	-5.87%
O=C1C=C(Nc2ccccc2)C(=O)N1c1ccccc1	-1.13%
Cl.N#Cc1cc(C#N)c(N2CCCC2)nc1Cl	10.36%
NC(=O)N/N=C/c1c[nH]c2ccccc12	16.25%
C#CCN(C)Cc1cc2cc(OC)ccc2n1C	13.79%
COc1ccccc1C1C(C#N)=C(N)Oc2ccc3ccccc3c21 (stereo not given)	6.33%
O=Cc1cc2ccccc2nc1Cl	14.13%
NNC(=O)CCc1c[nH]c2ccccc12	2.17%
CN1C/C(=C\Br)n2c1c(C#N)cc(C#N)c2=O	0.22%
C#CCN1CCc2nc3nc(N4CCCC4)c(C#N)cc3c(N)c2C1	10.98%

SMILES	Inhibition
O=C(N/N=C/c1ccc([N+](=O)[O-])cc1)c1cc2ccccc2[nH]1	-4.46%
C#CCN(C)Cc1cc2cc(OCCCC3CCN(Cc4ccc(C#N)cc4)CC3)ccc2n1C	2.4%
CC(=O)O[C@H]1CC[C@H](NC(=O)c2ccccc2)CC1	15.82%
O=C(NNCc1c[nH]c2ccccc12)c1cccc2ccccc12	-1.13%
COc1ccc2cc(C3C4=C(CC(C)(C)CC4=O)Oc4nc5c(c(N)c43)CCCCC5)c(Cl)nc2c1 (stereo not given)	-3.29%
CC(=O)NCCc1ccccc1	9.72%
N#Cc1c(N)nc(O)c(C#N)c1-c1ccccc1	-5.3%
CCOC(=O)c1cc(C#N)c(N)nc1C	8.15%
Nc1c2c(nc3nc4ccccc4nc13)CCCC2	14.71%
CC1Cc2c(nc3c(c2N)CCCC3)NC1=O (stereo not given)	9.25%
C#CCNC.O=C(O)C(=O)O	7.06%
CNCc1cc2cc(OC)ccc2n1C.Cl	-6.04%
O=Cc1ccc(OCCO[N+](=O)[O-])cc1	14.4%
N#Cc1c(Cl)nc(N2CCCCC2)c(C#N)c1-c1ccccc1	10.35%
CC(C)(C)OC(=O)N[C@H]1CC[C@H](O)CC1	6.83%
c1ccc(CNc2ncnc3c2cnn3-c2ccccc2)cc1	-10.8%
COc1nc2nc3c(c(N)c2cc1C#N)CN(Cc1ccccc1)CC3	14.85%
COc1ccc2cc(C3C(C(C)=O)=C(C)Oc4nc5c(c(N)c43)CCC5)c(Cl)nc2c1 (stereo not given)	-5.64%
COc1ccc2c(c1)cc(C(=O)Nc1ccccc1)n2C	9.71%
COc1ccc2c(c1)cc(C(=O)O)n2C	2.22%
CCCC(C)NNC(=O)Cc1c[nH]c2ccccc12 (stereo not given)	-5.32%
CC(C)(C)OC(=O)Nc1ccc(Cl)cn1	12.13%

SMILES	Inhibition
Cl.OCCCC1CCNCC1	11.88%
N#Cc1c(N)nc(N)c(C#N)c1-c1ccccc1	10.34%
CCOC(=O)CCc1c[nH]c2ccccc12	-3.64%
COc1cc(C2C(C#N)=C(N)Oc3ccc4ccccc4c32)ccc1O (stereo not given)	9.15%
COc1ccccc1C1c2ccc3ccccc3c2OC(=NBr)C1(Br)C#N (stereo not given)	4.29%
CCOC(=O)C1=C(C)NC(N)=C(C#N)C1c1ccc(OC)cc1 (stereo not given)	13.46%
COc1cccc(-c2c(C#N)c(=O)oc3c2ccc2ccccc23)c1	16.15%
Cn1c(C(=O)O)cc2cc(OCCCC3CCN(Cc4ccccc4)CC3)ccc21	7.39%
CC(=O)Oc1ccc(C=C2N=C(C)OC2=O)cc1	-3.67%
N#Cc1cc(C#N)c(NCc2ccccc2)nc1N	-3.71%
C#CCN(C)c1ncc(C#N)c(N)n1	11.11%
COc1ccccc1C1c2c(ccc3ccccc23)OC(=N)C1(Br)C#N (stereo not given)	4.2%
COc1ccc(C2c3c(nc4c(c3N)CCCC4)Oc3ccc4ccccc4c32)c(OC)c1 (stereo not given)	-10.58%
O=C1NC(=S)N/C1=C\c1ccccc1	-2.24%
N#Cc1cc(C#N)c(N2CCCC2)nc1N1CCCC1	-0.29%
N#Cc1cc2c(N)c3c(nc2nc1Cl)CCCC3	0.13%
CCOC(=O)C1=C(C)Oc2nc3c(c(N)c2C1c1ccc(O)c(OC)c1)CCC3 (stereo not given)	12.14%
COc1cccc(C=C2N=C(c3ccccc3)OC2=O)c1OC(C)=O	-1.43%
O=C(Cc1c[nH]c2ccccc12)N/N=C/c1ccco1	-4.85%
CCOC(=O)c1c(C)nc(NCC2CCN(Cc3ccccc3)CC2)c(C#N)c1-c1ccccc1	6.42%
C/C=C(/C#N)C(=O)OC	-6.24%
COc1cccc(C2C(C#N)=C(N)Oc3[nH]nc(C)c32)c1 (stereo not given)	-7.6%

SMILES	Inhibition
CNCc1cc2cc(OCc3ccccc3)ccc2n1C.Cl	-15.49%
CCOC(=O)c1c(C)nc2nc3c(c(N)c2c1-c1ccccc1OC)CCCCC3	8.29%
Cc1ccc(C(O)SNNc2ncnc3c2c(C)nn3-c2ccccc2)cc1 (stereo not given)	6.96%
COc1ccc(C2C(C#N)=C(N)Oc3c2ccc2ccccc32)cc1 (stereo not given)	10.2%
CC1=N/C(=C(\C)c2ccccc2)C(=O)O1	-4.05%
C#CCn1c(N)c(C#N)c2cc(O)ccc21	0.68%
C#CCN(C)c1cc(Cl)nc(N)n1	-12.57%
Cc1ccc2nc(Cl)c(/C=N/NCc3ccccc3)cc2c1	2.93%
Br.C#CCNCc1ccccc1	8.32%
COc1ccc(C=C2N=C(c3ccccc3)OC2=O)cc1	4.3%
CSC1=NC2(CC2c2ccccc2)C(=O)N1 (stereo not given)	1.07%
C=C1CN(C)c2c(C#N)c(-c3ccccc3)c(C#N)c(=O)n21	12.7%
C#CCN(C)Cc1cc2cc(OCCCCC3CCN(Cc4ccccc4)CC3)ccc2n1C.Cl	4.02%
COc1ccc(-c2cc(-c3cc4c(OC)ccc(OC)c4nc3Cl)cc(=O)[nH]2)cc1	5.76%
O=C(N/N=C/Cc1ccccc1)c1cc2ccccc2[nH]1	-4.91%
Cn1ccnc1C1C2=C(CC(C)(C)CC2=O)Oc2nc3c(c(N)c21)CCC3 (stereo not given)	0.16%
O=C1SC(SCc2ccccc2)=NC1=Cc1cccc(OCc2ccccc2)c1	6.57%
O=C(Cc1c[nH]c2ccccc12)NN=Cc1ccccc1	-5.11%
C#CCN1CCc2nc3nc(NC4CCN(Cc5ccccc5)CC4)c(C#N)cc3c(N)c2C1	7.08%
N#Cc1c(N)nc(N2CCOCC2)c(C#N)c1-c1ccccc1	0.04%
C1CNCCNCCNCCNC1	-3.14%
CCOC(=O)C1=C(C)OC(N)=C(C#N)C1c1ccc(OC)c(OC)c1 (stereo not given)	13.07%

SMILES	Inhibition
COc1ccccc1C1C(C#N)=C(N)Oc2c1ccc1ccccc21 (stereo not given)	-0.01%
COc1ccccc1-c1c(C#N)c(=O)oc2c1ccc1ccccc12	2.05%
Cc1ccc(C(O)SNNc2nc(C)nc3c2c(C)nn3-c2ccccc2)cc1 (stereo not given)	0.66%
N#CC1(Br)C(=NBr)Oc2c(ccc3ccccc23)C1c1ccc([N+](=O)[O-])cc1 (stereo not given)	-0.55%
Cc1nc2c(cc1C#N)c(N)nn2C	6.29%
CCOC(=O)/C(=C\c1ccccc1)C(=O)c1ccccc1	0.94%
Cn1ccnc1C1C2=C(CC(C)(C)CC2=O)Oc2nc3c(c(N)c21)CCCC3 (stereo not given)	-5.19%
Cc1cnc2ccc(Br)cn12	7.31%
CCOC(=O)C1=C(C)Nc2nc3c(c(N)c2C1c1ccc([N+](=O)[O-])cc1)CCCC3.Cl (stereo not given)	-16.8%
CC(=O)Nc1nc(Cl)c(C#N)c(-c2ccccc2)c1C#N	4.16%
N#Cc1c(N)nc(N2CCCCC2)c(C#N)c1-c1ccccc1	0.37%
Cc1ccc(/C=C(\C#N)C(=O)c2ccccc2)cc1	9.44%
CC(=O)/C=C/C1CCN(Cc2ccccc2)CC1	3.28%
N#Cc1cc(C#N)c(NCCCC2CCN(Cc3ccccc3)CC2)nc1N	-7.2%
CC(=O)N1CC(=O)NC1=S	-11.58%
C#CCN1CCc2nc3nc(N(C)C)c(C#N)cc3c(N)c2C1	15.96%
C#CCN(C)c1nc(NCCCCC2CCN(Cc3ccccc3)CC2)c(C#N)cc1C#N	-3.07%
N#Cc1cc(C#N)c(NCCCCC2CCN(Cc3ccccc3)CC2)nc1N	-3.11%
CC(C)(C)OC(=O)Nc1ccc(Br)cn1	-11.22%
O=C1OC(c2ccccc2)=NC12CC2c1ccc([N+](=O)[O-])cc1 (stereo not given)	-7.69%
COc1ccc2cc(C3C4=C(CC(C)(C)CC4=O)Oc4nc5c(c(N)c43)CCCC5)c(Cl)nc2c1 (stereo not given)	5.1%
Cl.Nc1c2c(nc3c1C(c1ccccc1)c1c(ccc4ccccc14)O3)CCCC2 (stereo not given)	-1.7%
